# Source: the supplement of paper PMC11417369
# The list shows a part of the results.
# Test system: PfSIP2 AP2 domain 1 (GST-tagged)
# Assay: gcPBM binding intensity (ln(normalized median fluorescence intensity)); higher = stronger DNA binding
# How it was run: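 After 1 h on an Agilent 4 × 180k array of primer-extended double-stranded 36-bp intergenic genomic probes and negative controls, bound GST-tagged P. falciparum DNA-binding domains were detected with Alexa488 anti-GST antibody and scanned at 488 nm. The domains had been expressed in E. coli, and binding took place in 1× PBS with 1% milk, 0.2 mg/ml BSA, 0.5% salmon testes DNA and 0.03% Triton X-100. Binding intensity is the highest Masliner-normalised natural-log median intensity across replicate spots of either probe orientation.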
row,Sequence,gcPBM binding intensity (ln)
1,TATATATTAAATTATAGTACACATTATATATAATTA [XGTACX_site4841],7.14
2,TATATATATATATATAGTACACATATCACATAAATG [XGTACX_site6379],9.54
3,ATAATATATGTATGTATGCACTTTTATTATTTTTTT,8.01
4,ATAATATATATATTTTGTACACATGAAAAGGAGGAT [XGTACX_site5034],7.88
5,ATAAAGTCTATATTATGTACATATAATATAAATATT [XGTACX_site6703],7.09
6,GAACATTACGTAAATAAATAAATAAAAATAAATACA [XGTACX_negctrl_site25],6.92
7,AAAAAACTTCACATATGTACTTAAAAAAAATTAAAA [XGTACX_site2368],7.15
8,TATTGTCTTGTATATGCATGTAGACCAAATATGTAA [TGCATGCA_site9],7.16
9,CAAAAAAAAATCTGTAGTACTTATTAATATTGCTGT [XGTACX_site4767],7.1
10,ATCACAAAAAAGTTCATACACACAACCTATTTATAT [CACACA_site2888],7.01
11,AAATCAAATTTTTAGAGTACTTAAGTTTTCTATATA [XGTACX_site7827],6.91
12,TCCCCATATGTTTTGTGTACATATATATTTTTTTGT [XGTACX_site75],7.19
13,TAATATATTAATATATGTACATATTTATATATCTAC [XGTACX_site7117],7.27
14,AAATAAGAGCGTAGCACACACGCATTTTATAAATGG [CACACA_site4571],6.65
15,TCATATAAGTTTAGTAGTACTAAAAGTTAGAGAGAA [XGTACX_site3430],7.42
16,ATATATGGAAAGAGTAGTACTATTATAGGGGTGTTA [XGTACX_site6785],7.13
17,TGATTATTATAATTTAGTACATAATATTTTATATAA [XGTACX_site6125],7.07
18,CAAGGAACCAGACACACACACATAAATGTATATATA [CACACA_site752],7.01
19,AAAACAAAAGAATTCACACATATATATATATATATA [CACACA_site4777],9.68
20,AAAATTAAACATACATCACACATGCATTATATTATG [CACACA_site5517],7.21
21,AAAATTAACGAGTGCACACATATTTAGATAAAATAC [CACACA_site2936],11.2
22,TTAAACGTACATAATACACACACATGTAGACATATA [CACACA_site8635],7.09
23,ATACTTTATTAATATTGTACAAAATAAGAAAAAAAA [XGTACX_site310],7.1

row,Sequence,gcPBM binding intensity (ln)
1,ACATAAAAATTATGCACACTTAATAAAGCGAAATGT [CACACA_site3183],7.72
2,CACAACAGGGTTGAGGTGCGTAAAAATAGTAGAATA [GTGCAC_site9523],9.02
3,TTTTTAATCCTTTGCGCATGTAAAATTATATATTTT [TGCATGCA_site306],7.43
4,TATATATATATGTGTACACAAAAAATATTATATTAT [CACACA_site5505],9.36
5,ATTCTATTTTTAAGTACACACATATATATATATATA [CACACA_site3658],9.29
6,ACATAATTATTATGCACACATATTTTTATGTATTTA [CACACA_site698],7.72
7,TAATGGTGTTCATGTGGTACACTTTATAAATTGGCA [XGTACX_site729],7.31
8,TTGAAAATTCTTAAGGCACACACATATATAATATAT [CACACA_site8088],7.12
9,GCTTATTTTAATTCTTGTACTTATTTATATACAAAT [XGTACX_site2099],7.61
10,AAACTAACTCTAACATGTACATATATATATATATAT [XGTACX_site6949],9.35
11,TTTTGAAGTAATACATGTACTTAAATTACTAAAAAA [XGTACX_site1955],6.92
12,ACTTTGCGTTAAAAGAGTACATAATATTTTTTTTTT [XGTACX_site7533],7.33
13,AAAAAAAACAGACACACACACATAAATATAAATAAA [CACACA_site6214],6.97
14,TTTTTAAAAAGTAACACACACTCTTATATATAATGA [CACACA_site3618],6.96
15,TATACATATATATATATATATAGATATATTCACGTG [XGTACX_negctrl_site265],7.88
16,AAAATAATAATAAATGCATGTGTTGTTTACTAAGAA [TGCATGCA_site528],7.54
17,TTTTTATATTTATATAAATAAAAAAATAACAAAATG [XGTACX_negctrl_site231],7.23
18,TACCTATACAGACACACACACACACGCCCACAAAAA [CACACA_site6375],7.35
19,TGAACATACATCAAAAGTACAAACTCGCATGTTATA [XGTACX_site3320],6.78
20,CTCCATATTAGACACACACACAAATGAAAAAAATAT [CACACA_site7420],7.51
21,TAAAATTAAACAAAAAAAAAGAAAAAAAAAAAAAAG [CACACA_negctrl_site1098],6.88
22,TTTTGGTATACGTAATTATATAATATGTTAATCAAT [CACACA_negctrl_site645],7.05
23,AATGTAGACACATATGTACACACATATATATGTATA [CACACA_site9014],7.2

row,Sequence,gcPBM binding intensity (ln)
1,AATATTCTATATGATACATGCATGATGGAATAAAAA [TGCATGCA_site980],6.98
2,CCGCCATTGTACCATCCACACACATATATATATGTA [CACACA_site8866],7.56
3,ATTATATATATATTATGTACATATATTGAAGTGGAT [XGTACX_site5916],7.56
4,ACGGATTAAAAAATGTGTACGCACAAAAAAAAAAAT [XGTACX_site8259],7.17
5,TACGAAATCATATGTACACACACATATATATATATA [CACACA_site5216],9.34
6,ATATATATATATATATGTACTTAATGTTATTATATA [XGTACX_site4508],9.13
7,TGTTCAGTATTGCACACACACAACAAAATAAAAAAA [CACACA_site6314],7.42
8,GAAATGTGATAATATACACACACGCATATATATATA [CACACA_site4332],9.04
9,AAATAGTTGTTAAAGGTGCACAATATGGATATAAGA,11.2
10,TGAAAATATATAACGCGTACAAAAAGGAAATACAAT [XGTACX_site3534],7.36
11,TTTTTTTTTTTTTTTGCATGTTGAAAATAAAATTAT [TGCATGCA_site86],6.92
12,ATTTATTTTAAATAAGTGCAAAATGGTTATAAATAA,8.23
13,AAAATTTCAATAAATACACACATATAAATATAGATT [CACACA_site6893],6.75
14,ATAAATATTTTGTAAGCATGCTTTTAAAAAAAGAAA [TGCATGCA_site572],6.79
15,ATGTACTATAGGCACACACACTCACATATATATATA [CACACA_site5745],9.64
16,GGAAAAAAATAAAATAAGTATTTTACATACATATTG [TGCATGCA_negctrl_site10],6.63
17,ATATATTTTTATATAGTGCAAGTAATAAAAAGGAAT,8.91
18,ATAACATTCAAAAAATGTACAAACATATGAATAAAT [XGTACX_site7013],6.93
19,ATATCATTTTATTTGTGTACTTAAAAAGTTGCAATG [XGTACX_site4099],7.51
20,AAAACTTTTTTAACAGAAAAATAGGGATACAATATA [CACACA_negctrl_site1708],7.16
21,GGAATAACCAGACACACACACACATATAAATATGTA [CACACA_site7632],7.05
22,TAAATACAAGAACTGACACACATACATACTACATTT [CACACA_site5561],6.95
23,GAACAAAAAAAAAATTGTACACAATTTTTTAAAATT [XGTACX_site4455],6.73

row,Sequence,gcPBM binding intensity (ln)
1,ATGATTTATTATTATACACACAAAAAAAAAAAAGGA [CACACA_site264],7.21
2,AATACATACATATATACATGCATACATATAAATATA [TGCATGCA_site674],7.4
3,GCTTATAAGATATGCACACACAACACTTACAAAAAA [CACACA_site817],7.66
4,AAACAAAAAAAATAAGCACACATATATATATATATA [CACACA_site8173],9.64
5,AAAATTATATGTAATTGTACGGAATTATATACGCAA [XGTACX_site2048],7.1
6,TCCTGTGGTTATATAACACACATTATTGCTTATAAG [CACACA_site6823],6.92
7,TTTTTTAAAAATATTATCATCGTAACAAGAAATCGA [CACACA_negctrl_site1111],7.13
8,ATATTGCTTATTTGATGTACGAATACACTAGTATTA [XGTACX_site4536],7.37
9,ATACTAAATGAACACACACACATATAGATTTATAAC [CACACA_site6200],7.07
10,TATCTGTATATGTGTACACATATTCTTAACTCACGC [CACACA_site4255],7.06
11,ATTTTATGAAATGTTGCACACAAAAAACAACATGTT [CACACA_site8408],7.66
12,GAACAACAACAAAAAAAAAAAAAAAAAAAAAAAAAA [CACACA_negctrl_site199],7.04
13,TAAATAAATATATGTACACACACAAATATATACATA [CACACA_site8577],7.12
14,TATATGATATAATATACACACATACATATATATATA [CACACA_site8066],8.99
15,CTGAATTTTTATAACTGTACATATTTGATATAAAAA [XGTACX_site183],7.27
16,ATGGGAAAAACATTCCGTACATACATACACATATAT [XGTACX_site8263],7.15
17,ATATTTAATACAAATACACACACAAATATATACATA [CACACA_site9248],7.11
18,GAAATCTAATTTATTACACACATTTGAAAAAAATTC [CACACA_site6640],6.69
19,TTATATTTTTTTGAGTGTACTTTTTGTGTAAAATTC [XGTACX_site2155],7.1
20,ACCCATTTTTGTTGTTCTATATATTCGTGAATCATT [CACACA_negctrl_site614],7.46
